Test results reported in PubChem BioAssay AID493208 (National Center for Advancing Translational Sciences (NCATS), 2011).
The whole screen tested about 44,000 compounds, of which about 340 (0.77%) were called active. About 5% were inconclusive and are not listed. The call rests on the fitted dose curve; in most records, active means well fitted inhibition curve with a large enough effect; inconclusive means small, poorly fitted or top-dose-only effect; inactive means flat fitted curve, though single readings scatter. The list shows a part of the results.

Assay: Acumen qHTS Assay for Inhibitors of the mTORC1 Signaling Pathway in MEF (Tsc2-/-, p53-/-) Cells: Sytravon;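 further: plate controls were DMSO for no effect and rapamycin for full effect; nearly all actives have a fitted effect of over 50% in size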
Settings: phospho-rpS6 immunofluorescence/PI, 24 h; series mostly up to 38.3 µM; activity change, negative = inhibition: at the top concentration
Summary of the method: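 Immunofluorescence of rpS6 phosphorylation in Tsc2-/-, p53-/- MEFs after 24 h compound exposure, normalized to propidium iodide signal. Activity is expressed as % positive cells, thresholded with 7.5 nM rapamycin.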

Activity change, negative = inhibition, inactive:
CCOC(=O)c1c(Nc2cccc(O)c2)nnc(-c2ccccc2)c1-c1ccccc1 -1.41%, Cc1ccc(NC(=O)Cn2cc(S(=O)(=O)c3ccc(F)cc3)c(=O)c3cc4c(cc32)OCO4)cc1 -11.8%, Cc1ccc(NC(=O)CSc2nccn2C2CCCC2)cc1 -4.76%, O=C(CSc1nc2ccccc2nc1Cc1ccc(F)cc1)Nc1ccc2c(c1)OCO2 3.03%, COCCNC(=O)Cn1c(=O)n(Cc2ccc(C(=O)NCCc3ccc(OC)c(OC)c3)cc2)c(=O)c2ccccc21 -25.8%, COc1cc(Cl)c(C)cc1NC(=O)CCCN1C(=O)C(c2ccccc2)Oc2cccnc21 (centres undefined) -11%, COc1ccc(-n2c3c(c(=O)[nH]c2=O)C(NC(C)=O)(C(F)(F)F)C(=O)N3)cc1 (centres undefined) -22.8%, Cc1cccc(Oc2nc3ccccn3c(=O)c2/C=C(\C#N)c2nc3ccccc3s2)c1C -9.13%, COc1ccc(NC(=O)C2CCCN(S(=O)(=O)c3cn(C)cn3)C2)cc1Cl (centres undefined) 4.69%, CCOc1ccccc1C1CC(=O)NC(C)=C1C(=O)OC1CCCCCC1 (centres undefined) -4.54%, COc1ccc(CCNC(=O)c2ccc3c(c2)CCN3S(=O)(=O)c2ccc(Cl)cc2)cc1 -7.04%, COc1ccc(OC)c(NC(=O)c2ccc(-c3nc(CSc4ccccc4)c(C)o3)cc2)c1 -0.507%, CC(C)(C)C(=O)Cn1c(=O)n(CCCCCC(=O)NCc2ccc3c(c2)OCO3)c(=O)c2sccc21 1.96%, COc1ccccc1CCNC(=O)c1ccc(NC(=O)N2CC(C)Sc3ccccc32)cc1 (centres undefined) -8.7%, CCCCn1cc(S(=O)(=O)c2ccc(CC)cc2)c(=O)c2cc(F)c(N3CCCC(C)C3)cc21 (centres undefined) -0.606%, Cc1ccc(C(=O)CSc2nc3cc(C(=O)NC4CCCC4)ccc3c(=O)n2CC2CCCO2)cc1 (centres undefined) 6.34%, CSc1cccc(NS(=O)(=O)c2ccc3[nH]cc(C(=O)N4CCCC4)c(=O)c3c2)c1 3.48%, Cn1c(=O)n(C)c2cc(N3CCCCC3)c(NC(=O)c3ccc(Cl)cc3)cc21 -8.05%, COc1cc(OC)c(NC(=O)c2c(C)nn(-c3ccc(C)cc3)c2-n2cccc2)cc1Cl 1.94%, COc1ccc(C(=O)NCCn2cc(SCC(=O)Nc3ccccc3)c3ccccc32)cc1OC 4.1%, Cc1cc(C)cc(NC(=O)C2CCCN2S(=O)(=O)c2ccc3c(c2)C(C)(C)C(=O)N3C)c1 (centres undefined) -1.14%, CCOC(=O)c1ccc(NC(=O)c2ccc3c(c2)c(C)c(C)n3Cc2ccc(F)cc2)cc1 0%, CCOC(=O)C1(C)C=C(Nc2ccc(OC)cc2)C(=O)N1c1ccccc1 (centres undefined) -16.9%, Cc1cc(C)c(Cn2c3ccccc3c3cnn(CC(=O)NC4CCCCCC4)c(=O)c32)c(C)c1 0.46%, COc1ccc(Cn2cc(C(=O)c3ccc(Cl)cc3)c(=O)c3cc4c(cc32)OCO4)cc1 -2.64%, COC(=O)c1cc2oc3ccccc3c2n1Cc1nc(-c2cccc(Cl)c2)oc1C -11.8%, CCc1ccc(Nc2nn3c(=O)c4cc5c(cc4nc3s2)OCO5)cc1 -1.86%, O=C(Nc1cccc(Cl)c1Cl)c1cc(S(=O)(=O)N2CCC3(CC2)OCCO3)ccc1F 4.58%, COc1cc(OC)cc(C(=O)Nc2ccc(S(=O)(=O)N3CCCCC3c3cccnc3)cc2)c1 (centres undefined) -8.3%, Cc1ccc(-n2nc3c(N4CCC(C(=O)N5CCC(C)CC5)CC4)nnc(C)c3c2C)cc1 -6.86%, CC(C)Cn1c(=O)c2sccc2n2c(CCCC(=O)NCC(C)c3ccccc3)nnc12 (centres undefined) -0.482%, O=C(NCCN1CCN(c2ccccc2F)CC1)C1COc2ccccc2C1 (centres undefined) -1.67%, O=C(CSc1oc(-c2ccccc2)nc1S(=O)(=O)c1ccc(Br)cc1)NC1CCCCC1 -8.55%, COc1ccc(OC)c(NC(=O)Cc2c(C(=O)O)[nH]c3ccc(Cl)cc23)c1 -5.75%, CCc1ccccc1NC(=O)Cc1ccc(-n2c(C)nc3cccnc32)cc1 -6.73%, Cc1ccc(C2=Nc3ccccc3N(CC(=O)NCc3ccc(Cl)cc3)C(=O)C2)cc1C -12.1%, COc1ccc(CNC(=O)c2ccc3c(c2)N(Cc2ccccc2F)C(=O)c2ccccc2S3=O)cc1 (centres undefined) 2.33%, CCOc1nc(NC(=O)NS(=O)(=O)Oc2cccc(F)c2)nc(-c2ccccc2)n1 10.7%, CC(=O)Nc1nonc1-c1nnc(SCc2ccccc2C)n1C 0.351%, O=C(c1ccc(Cl)cc1)N1CCCCC1CCN1CCOCC1 (centres undefined) -5.04%, Cc1ccc(C)c(N2CCN(C(=O)c3cc4c(=O)n(Cc5cccnc5)ccc4nc3C)CC2)c1 0%, Cc1cccc(CSc2nc3cccnc3n2Cc2ccc(C(=O)NCc3cccs3)cc2)c1 0.701%, Cc1ccc(NC(=O)c2cc3c(Cl)nc4ccc(C)cc4c3s2)c(Cl)c1 1.53%, COc1ccc(NC(=O)CSc2nc3ccccc3n2CC(=O)N2CCCC(C)C2)cc1 (centres undefined) 0%, Cc1cc(C)n(-c2nc3cc(Cl)c(Cl)cc3nc2Nc2ccc(F)cc2C)n1 4.47%, CCn1c(=O)c2cc(C(=O)Nc3cc(C)c(Cl)cc3OC)sc2c2ccccc21 -1%, CC(=O)N(Cc1cccnc1)c1nc2c(C)cc(C)cc2s1 -0.355%, CCOc1ccccc1N1CC(c2nc3ccccc3n2CCOc2ccc(OC)cc2)CC1=O (centres undefined) -11.5%, COc1ccc(CNC(=O)c2cc(-c3cccs3)nc3ccccc23)c(OC)c1 -0.0981%, CCOC(=O)c1sc(NC(=O)c2nc3ncccn3n2)c(C(=O)OC(C)C)c1C -5.66%, Cc1ccc(NS(=O)(=O)c2ccc3[nH]c4c(c3c2)CCCC4)c(C)c1 -0.34%, CC1CCc2c(sc3nnn(Cc4ccccc4)c(=O)c23)C1 (centres undefined) -16.7%, Cc1ccc(-c2nc3ccccn3c2Nc2c(C)cccc2C)o1 14%, CCOc1ccc(NC(=O)Cn2cc(C(=O)c3ccccc3)c(=O)c3cc(OC)ccc32)cc1 1.45%, COC(=O)c1cc(NC(=O)CCc2c(C)nc3nc(C)nn3c2C)cc(C(=O)OC)c1 -0.176%, O=C(Cc1ccc(F)cc1)NCCc1csc2nc(-c3ccc(Cl)cc3)nn12 5.12%, CCCCn1c(SCc2ccccc2C#N)nc2c(sc3ccccc32)c1=O -0.841%, CC1=C(C(=O)Nc2ccccc2C)C(c2ccc[nH]2)n2ncnc2N1 (centres undefined) 2.58%, Cc1ccc(-n2ncc3c(=O)n(Cc4cccc(C(F)(F)F)c4)cnc32)cc1C -6.16%, CCOC(=O)Cn1c(=O)cc(C)c2c(C)nn(-c3cccc(F)c3)c21 -9.25%, Cc1ccc2c(c1)-c1onc(C(=O)N(C)c3ccc(F)cc3)c1CO2 1.22%, Cc1cccc(CC(=O)Nc2cccc(-c3cn4cccnc4n3)c2)c1 -7.73%, CCc1ccc(S(=O)(=O)Nc2ccc3oc(C)c(C(=O)OCCOC)c3c2)cc1 -1.29%, Cc1cccc(NC(=O)c2cc3c(C)nn(-c4ccccc4)c3s2)c1 -14.1%, COc1ccc(CNC(=O)C2CCN(S(=O)(=O)Cc3ccccc3)CC2)cc1 -1.04%, O=C(NCc1ccc2c(c1)CCN2C(=O)c1ccncc1)c1cccc(F)c1 1.84%, CCOC(=O)c1[nH]c(C)c(C(=O)NCc2ccccc2Cl)c1C -6.76%, O=C(CCc1nnc2n(Cc3ccccc3Cl)c(=O)c3ccccc3n12)Nc1ccccc1 0.468%, CCCCN(c1ccccc1)S(=O)(=O)c1cc2c3c(c1)C(C)C(=O)N3CCC2 (centres undefined) 1.06%, COc1ccc(NC(=O)c2ccc(-c3nc(CSc4ccccc4)c(C)o3)cc2)c(OC)c1 -0.314%, CCOC(=O)C1CCCN(S(=O)(=O)c2cc(Br)cc3c2N(C(=O)CC)CC3)C1 (centres undefined) -2.43%, Cc1ccc(COC(=O)c2ccc(-c3nnn(Cc4ccc(C)cc4)n3)cc2)cc1 -1.64%, CCN(CCCNC(=O)CN1N=C(c2ccc(C)cc2)CCC1=O)c1ccccc1 -13.1%, O=c1cc(-c2ccccc2)nc(SCc2nc(-c3cccc(C(F)(F)F)c3)no2)[nH]1 0%, Cc1nn(-c2ccc(N3CCCCC3)nn2)c(C)c1CCC(=O)Nc1cccc(F)c1 -8.6%, Cc1ccn2c(=O)c(NC(=O)c3cccc([N+](=O)[O-])c3C)c(C)nc2c1 0%, CC(=O)C(Sc1nc(-c2ccccc2Cl)nc2c1c(=O)n(C)c(=O)n2C)C(=O)N(C)C (centres undefined) 3.47%, CCCCN(CC)C(=O)Cn1cc2c(n1)-c1c(oc(C(=O)N3CCCC3)c1C)CC2 3.66%, COc1cccc(C(=O)c2cn(CC(=O)Nc3ccc4c(c3)OCCO4)c3nc(C)ccc3c2=O)c1 0%, Cc1ccc(NC(=O)NCc2c(-n3cccc3)sc3c2CCCC3)c(Cl)c1 0%, Cc1ccc(CNC(=O)CCCn2nc(C)n3c(cc4sccc43)c2=O)cc1 -3.26%, CCC(=O)N1CCc2cc(S(=O)(=O)NC(CC(C)C)C(=O)NCc3cccc(OC)c3)ccc21 (centres undefined) 0.91%, Cc1cccc(C)c1NC(=O)c1cc2sccc2n1Cc1ccc(F)cc1 -12.9%, CCN(Cc1ccccc1)S(=O)(=O)c1ccc(F)c(C(=O)Nc2ccc(C(C)C)cc2)c1 -3.27%, COc1cc(NC(=O)C2CCN(S(=O)(=O)c3c(C)noc3/C=C/c3c(C)cc(C)cc3C)CC2)cc(OC)c1 -1.68%, COc1ccc(OC)c(CNc2ncc(-c3ccc(Cl)cc3)n2C)c1 -9.66%, CCOC(=O)c1cccc(NC(=O)NC2COc3ccccc3C2)c1 (centres undefined) 3.1%, Cc1ccc(CNC(=O)c2cn(C)c3ccc(S(=O)(=O)N4CCC(C)CC4)cc3c2=O)cc1 -4.35%, O=C(NCCCc1ccccc1)c1ccc2c(c1)sc1nc(-c3ccc(F)cc3)cn12 -11.1%, Cc1ccccc1CN1C(=O)c2ccccc2Sc2ccc(C(=O)NCCCN3CCOCC3)cc21 -13.2%, CCOc1ccc(CC(=O)NCc2ccc3c(c2)CCN3C(=O)c2ccc(F)cc2)cc1OCC 2%, Cc1ccc(Sc2c(C)nn(-c3ccccc3)c2OC(=O)CC(C)C)cc1 -4.83%, CC(=O)c1ccc(S(=O)(=O)Nc2cccc(-c3ccc(N4CCCC4)nn3)c2)cc1 -0.403%, O=C(NCCc1ccc(Cl)cc1)c1ccc2c(c1)N(Cc1ccccc1)C(=O)CS2 9.5%
